This note sets out measurements from paper PMC6919601, “Identification of Plasmodium dipeptidyl aminopeptidase allosteric inhibitors by high throughput screening” (PLoS ONE, 2019).

Structures are written as SMILES. Out of some 110,000 compounds screened, about 230 (0.21%) showed an effect of 50% or more. Some of the results follow.
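Also: 30 min substrate incubation versus DMSO and 10 µM JCP410 controls.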

Chain of DPAP1 (Q8IIJ9 whole entry, looked up): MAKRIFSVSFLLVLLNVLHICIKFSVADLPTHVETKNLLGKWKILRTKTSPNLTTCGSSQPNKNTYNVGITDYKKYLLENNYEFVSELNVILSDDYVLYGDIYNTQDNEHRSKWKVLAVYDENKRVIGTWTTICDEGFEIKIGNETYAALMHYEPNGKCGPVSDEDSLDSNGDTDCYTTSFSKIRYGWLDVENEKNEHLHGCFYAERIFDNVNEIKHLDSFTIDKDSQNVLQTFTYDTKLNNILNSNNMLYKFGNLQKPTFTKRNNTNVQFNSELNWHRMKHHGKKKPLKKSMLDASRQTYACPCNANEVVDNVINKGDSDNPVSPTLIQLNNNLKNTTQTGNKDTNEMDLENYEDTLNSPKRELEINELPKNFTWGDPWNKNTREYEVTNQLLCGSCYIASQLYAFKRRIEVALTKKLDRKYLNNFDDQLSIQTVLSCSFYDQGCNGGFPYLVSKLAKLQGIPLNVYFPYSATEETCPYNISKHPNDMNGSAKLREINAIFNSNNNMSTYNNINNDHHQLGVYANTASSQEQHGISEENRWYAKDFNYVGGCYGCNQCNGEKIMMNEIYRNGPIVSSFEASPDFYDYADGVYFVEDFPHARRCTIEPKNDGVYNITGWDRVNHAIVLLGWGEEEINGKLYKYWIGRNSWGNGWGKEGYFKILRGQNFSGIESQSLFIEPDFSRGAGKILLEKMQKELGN

This experiment concerns the target DPAP1 (Plasmodium falciparum, UniProt Q8IIJ9). The experiment can be described thus: primary screen, percent inhibition; read by cleavage of a fluorogenic dipeptide substrate; higher = more effect of the substance. The arrangement: species or system P. falciparum D10 trophozoite lysates; single well.
Consider `CS(=O)(=O)N(CC(=O)N1CCCCCC1)c1ccc(Br)cc1`, for which the “% Inhibition @ 10 uM” value amounted to 1.39%.
For `O=C(c1ccco1)N1CCN(Cc2nnc(-c3cccc(Cl)c3)o2)CC1`, the “% Inhibition @ 10 uM” value worked out at 1.49%.
`Cc1onc(-c2ccccc2)c1C(=O)NCc1ccc(Cl)cc1`: the “% Inhibition @ 10 uM” value is 4%.
Take `CC(C)n1cc(/C=C2/SC(=O)N(CC(=O)Nc3ccc4c(c3)OCO4)C2=O)c2ccccc21`: the “% Inhibition @ 10 uM” value turned out to be 3.75%.
In the case of `CN1CCc2c(c3ccccc3n2-c2ccccc2)C1` it was -1.42%; in that of `Cn1c2c(c(=O)[nH]c1=O)C1(O)C(=O)c3ccccc3C1(O)N2` (centres unmarked), 2.76%.
With `O=C(NCCSc1ccccc1)c1ccc2ccccc2n1` the figure was -1.55%; with `Cn1c(=O)c2nc(-c3cccc(O)c3)[nH]c2n(C)c1=O`, -3.05%.
In the case of `CCOC(=O)N1CCN(C(=O)NC23CC4CC(CC(C4)C2)C3)CC1` it was -3.77%; in that of `C=Cc1ccc(Cn2c(C)c(CNCCC3=CCCCC3)c(C(=O)O)c2C)cc1`, -0.23%; in that of `CCN(Cc1ccccc1)Cc1ccccn1`, -2.21%.
`CC(NC(=O)Cn1c(-c2nonc2N)nc2ccccc21)c1ccccc1` (centres unmarked): the “% Inhibition @ 10 uM” value is -1.81%.
Consider `CCN1CCC(NCCc2cccc(Cl)c2)CC1`, for which the “% Inhibition @ 10 uM” value worked out at 0.217%.
In the case of `COc1ccc(OCc2ccc(C3C(C#N)=C(N)OC4=C3C(=O)CC(C)(C)C4)cc2OC)cc1` (centres unmarked), the “% Inhibition @ 10 uM” value is -0.105%.
With `Cc1ccccc1S(=O)(=O)Cc1ccc(C(=O)NCCN2CCCCC2C)o1` (centres unmarked) the figure was -8.34%; with `Cc1[nH]c(-c2ccc(F)cc2)cc1C(=O)N1CCC(N2CCCCC2)CC1`, -0.959%; with `O=C(CNC(=S)N(Cc1ccccc1F)C1CCCCC1)NC1CCCC1`, -2.36%.
Consider `Nc1ccccc1-c1ccccc1N(c1ccccc1)c1ccccc1`, for which the “% Inhibition @ 10 uM” value is -5.9%.
In the case of `CC(=O)Nc1sc2c(c1C#N)CCCC2` it was 9.4%; in that of `Cc1ccc(OCC(=O)Nc2ccccn2)c(-n2nc3ccccc3n2)c1`, -2.41%.
As to `CC1COc2c(F)c(F)cc3c(=O)c(C(=O)O)cn1c23` (centres unmarked), the “% Inhibition @ 10 uM” value is -1.29%.
In the case of `C=CCn1c(N2CCCCC2)nc2c1c(=O)[nH]c(=O)n2C`, the “% Inhibition @ 10 uM” value is -3.63%.
With `Cc1ccc2[nH]c3c(c2c1)CC/C(=C/c1ccco1)C3=O` the figure was -5.51%; with `COC(=O)c1cc(S(=O)(=O)NCCCc2ccco2)c[nH]1`, 3.78%; with `O=C(c1ccc2c(c1)C(=O)N(CCCO)C2=O)c1ccc2c(c1)C(=O)N(CCCO)C2=O`, 2.65%.
In the case of `Cc1cccc(Cn2c(CCNC(=O)C(C)(C)C)nc3ccccc32)c1` it was 2.73%; in that of `COc1ccc2c(c1)-c1nc(N)sc1CC2`, 0.345%.
In the case of `Cc1ccnc(NS(=O)(=O)c2ccc(NC(=O)c3cccnc3)cc2)n1` it was 0.138%; in that of `Cc1ccc(C(=O)N/C(=C\c2cccc(Oc3ccccc3)c2)C(=O)NC2CCS(=O)(=O)C2)cc1` (centres unmarked), -1.29%; in that of `COc1ccccc1C1C(C#N)=C(N)Oc2nc(O)nc(O)c21` (centres unmarked), -6.75%.
As for `O=C(O)C1CC=CCC1C(=O)c1ccc(Br)cc1` (centres unmarked), the “% Inhibition @ 10 uM” value is on record as -0.949%.
As to `CCN(CC)c1ccc(NC(=O)CCC(=O)O)cc1`, the “% Inhibition @ 10 uM” value came to 1.88%.
With `Cc1nn(-c2ccccc2)c2c1C1(C(=O)Nc3ccc(Br)cc31)C(C#N)=C(N)O2` (centres unmarked) the figure was 1.08%.
In the case of `N=C(Cc1cccc2ccccc12)NOC(=O)N1CCOCC1` it was -1.47%; in that of `CC(C)C1C(C#N)=C(N)Oc2nc(SCc3ccccc3)nc(O)c21` (centres unmarked), -2.14%; in that of `O=C(COc1ccc(S(=O)(=O)NC2CCCCC2)cc1)N1CCN(c2cccc(Cl)c2)CC1`, 1.88%.
With `CCOC(=O)c1sc(NC(=O)CSc2nnnn2C2CCCCC2)nc1C` the figure was 4.46%.
For the compound `O=C(c1ccc(C(=O)N2CCN(Cc3ccccc3)CC2)cc1)N1CCN(Cc2ccccc2)CC1`, the “% Inhibition @ 10 uM” value amounted to 1.39%.
With `CC(C)(C)NC(=O)CC(c1ccccc1)c1cc(Br)ccc1O` (centres unmarked) the figure was -1.81%; with `C=Cc1ccc(Cn2c(C(=O)O)c(CNCc3ccc4c(c3)OCO4)c3ccc(C)cc32)cc1`, 0.00226%.
Regarding `Cc1cc(C)n(C(=O)CCN2C(=O)c3ccccc3C2=O)n1`, the “% Inhibition @ 10 uM” value is listed as 9.09%.
In the case of `Cc1ccc(CC2CC(=O)N(Cc3ccco3)C2=O)cc1` (centres unmarked) it was 0.674%; in that of `CCOc1ccc(NC(=O)c2ccccc2N)cc1`, -2.44%.
With `COc1cccc(C2C3=C(O)CCCC3=NC(C)=C2C(=O)Nc2ccccc2C)c1` (centres unmarked) the figure was 2.36%; with `O=C(Cn1nnc2sc(-c3ccccc3)cc2c1=O)NCCc1ccccc1`, -6.43%; with `CCCC1Cc2nc(N3CCCCC3)c(C#N)cc2CO1` (centres unmarked), -0.403%.
With `O=C(CN1CCOCC1)Nc1c(C(=O)c2ccc(F)cc2)oc2ccccc12` the figure was -1.44%.
Regarding `Cc1ccccc1-c1nnc(CS(=O)(=O)c2ccccc2)o1`, the “% Inhibition @ 10 uM” value turned out to be 9.95%.
As for `C=CCN1C(=O)/C(=C\c2ccc(Cl)cc2Cl)C(C(=O)OC)=C1C`, the “% Inhibition @ 10 uM” value is listed as -5.11%.
In the case of `CC1=C(C(=O)OCc2ccccc2)C(c2ccsc2)C(C#N)=C(N)O1` (centres unmarked) it was 1.41%.
